First the molecules themselves.
B1: LINE1-mini (parent)
chain: GGCAGAGCUCAACACAGCGUGGCAAAGUGGCUGUGGCUAGACUGCC

Read counts are not given, so values of variants with three or more changes are uncertain.

Variants of B1 are the subject of this data set. Briefly: self-cleavage, relative activity (ratio to wild type); higher = more cleavage; in vitro, sequencing; the parent is a self-cleaving ribozyme.
With A14U G29C C31A U34A, the self-cleavage was found to be 0.29. Next, C15A A24U A41C: 0.09.

C15U G22U G27U C46U: the self-cleavage amounted to 1.9. Next, A14U C18U A25G: 0.03. Next, C15U G30U C45G: 0.05; C15A C23U A26C: 0.23. As to C15A G27A G29U, the self-cleavage is 0.21. On to C15G G30U U34C G36C U43A, for which the self-cleavage was 0.01. Regarding C15U G29A A39C, the self-cleavage worked out at 0.08. Next, C15G A16C G17U G29A C31A: 0.01.

Turning to A14U G36C G40A, the self-cleavage stood at 0.02. With C15A G17C U20G, the self-cleavage came to 0.05. Regarding A14U C23G G40A, the self-cleavage is 0.07. For A14U U20C G22C C37U, the self-cleavage is 0.03. In the case of C15A G17A C18A A25U, the self-cleavage turned out to be 0.07. In the case of C15U A26C G33C C42G, the self-cleavage came out at 0.11.

On to C15U G17U G27A C31A, for which the self-cleavage was determined as 0.86. As for C15U C31U C37U, the self-cleavage was 0.17.

C15A G17C G22U G40U C45A: the self-cleavage worked out at 0.02. C15G G27A U32G: the self-cleavage is 0.01. As for A14U G21U U32G G35A G36U A39U, the self-cleavage was 0.06. On to C15U C31U C45A, for which the self-cleavage came to 0.03. Turning to C15U C18G A26G U34C, the self-cleavage came to 0. As for C15A G29C G36A, the self-cleavage came out at 0.01. For the variant C15A C18G G29U, the self-cleavage turned out to be 0.01. Take C15U A24G G44A: the self-cleavage was 0.2. Next, C15G C31A C37G C45G: 0.05. Take C15G G17C C31G G44U: the self-cleavage is 0.02.

Consider C15U G30C C37U, for which the self-cleavage is 0.03. As for C15G A24U C31A A41C C42U C45U, the self-cleavage was found to be 0.02. With A14U G21U U34G, the self-cleavage came to 0.24. Consider C15U G33C G35U, for which the self-cleavage is 0.02. In the case of C15A A16U U20A U34C G44C C46U, the self-cleavage was found to be 0.02. Next, C15U G17C C18A G30C G40C C45U: 0.01.

With A14U G40U C45A, the self-cleavage was 0.15. For C15G G30A A39U, the self-cleavage was determined as 0.02. On to C15G G27A G33U C37G G40C, for which the self-cleavage was determined as 0. Turning to C15U A25C U28C, the self-cleavage came out at 0.88. With C15U A16U G30U, the self-cleavage stood at 0.04. Next, C15U G35U C37G C42A: 0.05; C15G G30A C45U: 0.02.

Take C15U A24U U28C: the self-cleavage came out at 0.2. Next, C15G C18G A26C A39G: 0.13; C15U U20A G29U G35A G40U: 0.05.

On to C15A G22U G27A C37A, for which the self-cleavage stood at 0.01. With C15U C37U U43C, the self-cleavage turned out to be 0.01. Next, C15U G21U G22A A25G G36C: 0.03; C15G G21A G27U G33U: 0.4; C15U A16C G17A: 0.03. As for C15A G17A A26U G35U, the self-cleavage turned out to be 0.02.

On to A14U U20C G22U U34G G35U G40U, for which the self-cleavage amounted to 0.01. In the case of C15U G19C G40U, the self-cleavage came out at 0.12.

For the variant A14U C37A G44U, the self-cleavage worked out at 0.12. Next, C15A G40U A41U: 0.22; C15U G17A A39C: 0.04. Turning to A14U G19A G21C A24G, the self-cleavage was 0.18. In the case of C15A C42G G44U, the self-cleavage worked out at 0.04. As to C15U A25C U32G C37A, the self-cleavage stood at 0.02.

Regarding A14U U34A C37A, the self-cleavage was determined as 0.

As for C15U U28G C42A C45A, the self-cleavage is 0.05. As for C15A U28G U34G, the self-cleavage is 0. As to A14U U20A U32A G33U, the self-cleavage worked out at 0.02.

In the case of A14U C18A G36A G40C U43C, the self-cleavage came out at 0.04. Regarding C15U G36U A39U G40U, the self-cleavage is 0.98.

For C15G U20A G21U U34G, the self-cleavage came to 0.01.

With C15A G33A C42G, the self-cleavage was found to be 0.01. Regarding C15G G17U A24U U34G A39C, the self-cleavage worked out at 0.03. C15G G19U U43C: the self-cleavage worked out at 0.08. On to C15U A25C U43C C45U, for which the self-cleavage worked out at 0.07. Next, C15U C31G C46A: 0.04; C15G A16C G19U: 0.01; C15G G35C C37U A39G C42G: 0. Regarding C15U G21U G27C C31A G40C, the self-cleavage turned out to be 0.01. For the variant C15A G27U G40A C45G, the self-cleavage came out at 0.01.

A14U U28C G29C G40C C45U: the self-cleavage came out at 0.07.

In the case of C15A G19A G21A G44U, the self-cleavage came out at 0.02. A14U U20G G21A U38A C42U: the self-cleavage is 0.05. Next, C15A U32C A39C: 0.03.

For the variant C15U G35U C42G, the self-cleavage was 0.08.

In the case of C15U G17A A24U G27U, the self-cleavage worked out at 0.07. With C15A C18G U20G U32A, the self-cleavage was determined as 0.01.

C15A A24U A25C: the self-cleavage is 0.02. Next, C15G A24C G36C G40C: 0.07; C15A C18A A24C C37U: 0. In the case of C15U G33A G36U, the self-cleavage is 0.09. As to C15U G33A G36C, the self-cleavage turned out to be 0.23. As to C15U C18A C23A G40U, the self-cleavage is 0.02. As to C15A G17C A25C G40U, the self-cleavage is 0.05. With C15A C18A G35A, the self-cleavage came out at 0.03. Next, C15G G17A G44C: 0.03; A14U G17A C45U: 0.03; C15G C42U U43C: 0. For C15A U38C A39G, the self-cleavage is 0.04.

On to C15U A41C C46U, for which the self-cleavage amounted to 0.04. As for A14U G19C U20C A24C, the self-cleavage was 0.06. Turning to C15A A25U G29C, the self-cleavage was determined as 0.06. Take C15U U20G G29C: the self-cleavage stood at 2.55. With C15G G21C C23A U34A A39U C42U, the self-cleavage amounted to 0.03.

In the case of C15U G21A C23A, the self-cleavage was determined as 1.41. For the variant C15U A16C C45U, the self-cleavage was found to be 0.03.

With C15U G19C C23G, the self-cleavage worked out at 0.65.

Take C15U A24G A41G: the self-cleavage was 0.25.

As to A14U C18A U34G, the self-cleavage was 0.12. As to C15G G19A A39G A41G, the self-cleavage was found to be 0.03. Next, C15A C23G G30A: 0.03. As to C15G G21A C45U, the self-cleavage stood at 0.03.

Regarding C15G A25C U34G, the self-cleavage was 0.01. Next, C15A U32C G33C: 0.02; C15G A26C C37U C42U: 0.01. A14U C18A G36U G40U: the self-cleavage stood at 0.03.

C15U G22U C37A G40A: the self-cleavage was found to be 0.01. Next, C15G G36U C37U: 0.03; C15U G19U U34C C42A: 0.04. As to C15G A24U U34G C37U, the self-cleavage came to 0.03.

C15A C31U C45U: the self-cleavage was 0.05. Next, C15U A16G U28C: 0.07; C15A U20G A25C: 0.02. Take C15U G22A A25U C42A: the self-cleavage came out at 0.16.

On to C15A U32G C37U, for which the self-cleavage amounted to 0.09.

With C15A U20A U32A A39U, the self-cleavage was 0.02. Next, C15U C23A U28G: 1.11. For C15A G21U G33C U43C, the self-cleavage is 0.03. As to C15G G21A A26U, the self-cleavage was found to be 0.07.

For C15G G22A C23A U32A, the self-cleavage is 0.07. For the variant C15G G33A G35A C42U, the self-cleavage came out at 0.02. Take C15A G17A U20A A25G: the self-cleavage worked out at 0.08. Regarding C15U G22A G29A C37U, the self-cleavage amounted to 0.23.

In the case of C15A C23G C37G G40U U43C, the self-cleavage is 0.03. Take C15A G36A C37U: the self-cleavage stood at 0.03.

Regarding C15G C31U G44U, the self-cleavage is 0.01.

For the variant C15G A16G G21C, the self-cleavage amounted to 0.03. Next, A14U G17U A25C U32A U34C: 0.11; C15U U28A U32C U34C G35A: 0.09; C15A G35U C45A: 0.01. With C15G A24U U28A, the self-cleavage was determined as 0.03.

Consider C15U G22U A41G C45U, for which the self-cleavage came to 0.18. As for A14U G27C C31G, the self-cleavage amounted to 0.03. On to C15A G17C C18G, for which the self-cleavage turned out to be 0. As to C15G U28A G30A G33A C37U, the self-cleavage was determined as 0.01. Regarding C15A G21U G44C, the self-cleavage came to 0.04. For the variant A14U G19A U20A C42A, the self-cleavage came to 0.04. Turning to C15U A25G G36U, the self-cleavage stood at 0.08. Next, C15A C23G G44C: 0; C15A G19A C31G: 0.07; A14U U20G C31A G35A: 0.04. On to C15A G21U G27A G30A, for which the self-cleavage was 0.19. For C15U G29A U38G, the self-cleavage was 0.05. Consider C15A C23A A25U G35U C42A, for which the self-cleavage was 0.04. With C15U A25C G30A, the self-cleavage was determined as 0.15. Next, A14U G29U G40C: 0.07; C15A G17A U38A C46U: 0.03; C15A C37U G40A: 0.04. Turning to A14U U28C A39U, the self-cleavage stood at 0.07. In the case of C15A U28A U38C, the self-cleavage is 0.09. Consider C15U C18G U38G, for which the self-cleavage stood at 0.04. On to C15U G17U G27U G44U, for which the self-cleavage is 0.05.

C15U G35A A39C A41U: the self-cleavage was 0.01. Next, C15A U34C G36A U38G: 0.04; C15A G21C A24G U32G C45U: 0.03; C15G U20C A26U U34C G40A: 0.03. Next, C15U G17C A26U: 0.11; C15U G29U C46U: 0.83; C15G A24C U32C G35A C42G: 0. For C15G A16C G35A G36C, the self-cleavage was determined as 0.23. On to C15U C23U C31A, for which the self-cleavage is 0.07.

On to C15A C31G C45G C46A, for which the self-cleavage was determined as 0.07. Consider A14U C18U A24U, for which the self-cleavage was 0.08.

Values taken from the RNAGym collection of RNA variant scans (doi:10.7554/elife.90254).
